{"source": "PubChem BioAssay AID602310", "about": "(National Center for Advancing Translational Sciences (NCATS), 2012)", "note": "Hit rate of the full screen: of about 410,000 compounds, about 310 (0.076%) were called active. The inconclusive results got no clear call from the source; some entries with a clear call stand among them for comparison. The call rests on the fitted dose curve; in most records, active means well fitted curve in the direction sought with a large enough effect; inconclusive means small, poorly fitted or top-dose-only effect; inactive means flat fitted curve, though single readings scatter. Potencies beside an inconclusive call are fits to weak or partial responses and may not hold up. Potency means the concentration at half of the fitted maximal effect; tags describe the fitted curve by direction and shape."}
{"biological_target": "DNA dC->dU-editing enzyme APOBEC-3G (Homo sapiens) (UniProt Q9HC16)", "sequence (Q9HC16 whole entry, looked up)": "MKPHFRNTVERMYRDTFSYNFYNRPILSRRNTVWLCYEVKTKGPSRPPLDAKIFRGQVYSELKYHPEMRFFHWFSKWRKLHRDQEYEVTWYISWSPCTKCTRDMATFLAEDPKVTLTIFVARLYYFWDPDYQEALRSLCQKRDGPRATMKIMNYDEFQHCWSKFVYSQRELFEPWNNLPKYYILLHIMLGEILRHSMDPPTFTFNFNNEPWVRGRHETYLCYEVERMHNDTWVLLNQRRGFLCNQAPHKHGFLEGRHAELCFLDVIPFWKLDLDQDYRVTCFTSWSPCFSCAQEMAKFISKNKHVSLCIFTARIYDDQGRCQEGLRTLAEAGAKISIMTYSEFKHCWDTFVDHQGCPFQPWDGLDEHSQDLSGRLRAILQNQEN", "assay": "qHTS for Inhibitors of Vif-A3G Interactions: qHTS; further: nearly all actives have a fitted effect of over 60% in size", "settings": "HeLa A3G-eYFP + Vif (tagged APOBEC3G with the HIV-1 protein that degrades it), YFP fluorescence, overnight; series mostly up to 46.1 µM", "how_it_was_run": "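Read-out is eYFP fluorescence (Ex 488/Em 500-530) from Vif-expressing HeLa A3G-eYFP cells; more signal means A3G escaped Vif-mediated degradation. Cells plated overnight, compound pinned in, incubated overnight at 37 deg C.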"}
{"smiles": "CC(/C=C/c1ccc2c(c1)OCO2)=N/NC(=O)c1ccc(C)nc1", "Potency": "inconclusive: 12.6 µM [inhibitor, single point]"}
{"smiles": "Cc1cccc(NC(=O)c2cc([N+](=O)[O-])ccc2Cl)c1O", "Potency": "inactive"}
{"smiles": "O=C(Cc1ccccc1F)Nc1nc(-c2ccc(F)cc2)cs1", "Potency": "inconclusive: 25.1 µM [inhibitor, partial curve, poor fit]"}
{"smiles": "NC(Cc1ccccc1)C(O)c1ccco1", "note": "(configuration not stated)", "Potency": "inactive"}
{"smiles": "COc1ccc2c(c1)C(=O)N1[C@H]3c4cc(Cl)ccc4OC[C@@H]3[C@H](c3ccccc3)[C@]1(C)C(=O)N2", "Potency": "inconclusive: 3.16 µM [inhibitor, full curve, poor fit]"}
{"smiles": "COc1cc([C@@H]2[C@H]3CNCC=C3C(C#N)=C(N)C2(C#N)C#N)ccc1OC(C)C", "Potency": "inconclusive: 20 µM [inhibitor, single point]"}
{"smiles": "Cc1ccc(C(=O)N/N=c2\\oc3ccccc3cc2C(N)=O)cc1", "Potency": "inactive"}
{"smiles": "CC(C)Cn1c(CN2CCN(c3cccc(Cl)c3)CC2)nc2c1c(=O)[nH]c(=O)n2C", "Potency": "inconclusive: 3.16 µM [inhibitor, partial curve, poor fit]"}
{"smiles": "COc1ccc(NS(=O)(=O)c2cc(NC(=O)[C@@H](NC(=O)c3ccccc3)C(C)C)ccc2C)cc1", "Potency": "inconclusive: 2.82 µM [inhibitor, full curve, poor fit]"}
{"smiles": "COCCCNC(=O)CCCn1c(=O)c2ccccc2n(CC(=O)Nc2ccc(C)cc2Cl)c1=O", "Potency": "inactive"}
{"smiles": "c1ccc2c(c1)oc1c(-c3cccc4nccn34)cccc12", "Potency": "inconclusive: 2.82 µM [inhibitor, full curve, poor fit]"}
{"smiles": "COc1ccccc1C(=O)Nc1ccc2c(c1)nc(CCNC(=O)c1ccco1)n2C", "Potency": "inconclusive: 2.24 µM [inhibitor, full curve, poor fit]"}
{"smiles": "Cc1[nH]c2ccccc2c1/C=C/C(=O)c1ccccc1", "Potency": "inconclusive: 17.8 µM [inhibitor, partial curve, poor fit]"}
{"smiles": "CCOC(=O)C1=C(C)N=c2sc(=Cc3cc(Cl)c(OCC(=O)O)c(Cl)c3)c(=O)n2C1c1cccc(OC)c1", "note": "(configuration not stated)", "Potency": "inconclusive: 12.6 µM [inhibitor, partial curve, poor fit]"}
{"smiles": "COC(=O)c1ccccc1NC(=O)Cn1nnc(-c2ccc(OC)cc2)n1", "Potency": "inconclusive: 35.5 µM [inhibitor, single point]"}
{"smiles": "O=C(O)c1cccc(-n2cccc2/C=C\\[N+](=O)[O-])c1", "Potency": "inactive"}
{"smiles": "O=C1C=CC(n2cc(F)c(=O)[nH]c2=O)O1", "note": "(configuration not stated)", "Potency": "inconclusive: 25.1 µM [inhibitor, single point]"}
{"smiles": "CCc1cccc(NC(=O)C2CCCN2S(=O)(=O)c2ccc3nc(-c4ccccc4)[nH]c3c2)c1", "note": "(configuration not stated)", "Potency": "inactive"}
{"smiles": "COc1cc(C2CC(=O)c3cnc(N4CCN(Cc5ccccc5)CC4)nc3C2)cc(OC)c1OC", "note": "(configuration not stated)", "Potency": "inconclusive: 3.16 µM [inhibitor, full curve, poor fit]"}
{"smiles": "COc1ccc(Nc2nc(NCc3cccs3)nc3ccsc23)cc1OC", "Potency": "inconclusive: 11.2 µM [inhibitor, partial curve, poor fit]"}
{"smiles": "CCOc1cc(CNc2ccc(N3CCOCC3)cc2)cc(Br)c1OCC", "Potency": "inactive"}
{"smiles": "COc1ccc(NC(=O)c2c(C)noc2-c2snnc2C)cc1", "Potency": "inconclusive: 11.2 µM [inhibitor, partial curve, poor fit]"}
{"smiles": "O=C(Cc1c[nH]c2ccccc12)NCc1ccc(Cl)cc1", "Potency": "inconclusive: 12.6 µM [inhibitor, single point]"}
{"smiles": "COc1ccc(C2=CC(c3c(C)nn(-c4ccccc4)c3Cl)n3nnnc3N2)cc1OC", "note": "(configuration not stated)", "Potency": "inactive"}
{"smiles": "CC(C)CN(CC(C)C)c1ccc(/C=C/c2ccnc3ccccc23)cc1", "Potency": "inconclusive: 10 µM [inhibitor, partial curve]"}
{"smiles": "COc1ccc(C#Cc2c(C=O)n(C)c3ccccc23)cc1", "Potency": "inactive"}
{"smiles": "Oc1ccc(Cl)cc1-c1cc(-c2ccco2)[nH]n1", "Potency": "inconclusive: 35.5 µM [inhibitor, single point]"}
{"smiles": "CCN1Cc2c(/C=C/c3ccccc3)nc3ccc(OC)cc3c2N(c2cccc(Cl)c2)C1", "Potency": "inconclusive: 17.8 µM [inhibitor, single point]"}
{"smiles": "Cc1ccc(CN2C(=O)c3ccccc3Sc3ccc(C(=O)NCCN4CCOCC4)cc32)cc1", "Potency": "inconclusive: 7.94 µM [inhibitor, partial curve, poor fit]"}
{"smiles": "Nc1ccc2nc(-c3ccccc3)sc2c1", "Potency": "inactive"}
{"smiles": "Cc1cccc(NC(=O)Cn2c(O)c(N=NC(=O)c3ccccc3O)c3ccccc32)c1", "Potency": "inconclusive: 22.4 µM [inhibitor, partial curve, poor fit]"}
{"smiles": "O=C(CCN1CCN(c2ccccc2F)CC1)c1ccc(Br)cc1", "Potency": "inactive"}
{"smiles": "O=c1ccc(NS(=O)(=O)c2ccccc2Cl)cn1Cc1ccc(Cl)c(Cl)c1", "Potency": "inactive"}
{"smiles": "Cc1ccc(NC(=O)CSc2n[nH]c(-c3ccccn3)n2)cc1", "Potency": "inconclusive: 15.8 µM [inhibitor, single point]"}
{"smiles": "CCOC(=O)c1c(NC(C)=O)sc2c1CCC(C=NCCCN(CC)CC)=C2Sc1ccccc1", "Potency": "inconclusive: 35.5 µM [inhibitor, single point]"}
{"smiles": "N#Cc1cccc2c1-c1ccccc1/C2=N/NC(N)=S", "Potency": "inactive"}
{"smiles": "CN(C)CCCNc1cc(N2CCN(C3CCCCC3)CC2)c2noc3c2c1C(=O)c1ccccc1-3", "Potency": "inconclusive: 6.31 µM [inhibitor, partial curve, poor fit]"}
{"smiles": "COc1ccc(Cl)cc1NC(=O)CNc1ccccc1F", "Potency": "inconclusive: 22.4 µM [inhibitor, single point]"}
{"smiles": "O=C/C(=C\\Nc1ccc(S(=O)(=O)CCO)cc1)c1nc2cc(Cl)ccc2o1", "Potency": "inconclusive: 22.4 µM [inhibitor, single point]"}
{"smiles": "Oc1c(C(c2ccccn2)N2CCOCC2)ccc2cccnc12", "note": "(configuration not stated)", "Potency": "inconclusive: 35.5 µM [inhibitor, single point]"}
{"smiles": "CCCc1nc2ccc(C)cn2c1Cc1ccccc1", "Potency": "inconclusive: 35.5 µM [inhibitor, single point]"}
{"smiles": "CN(C)c1ccccc1-c1cc(NC=O)c2ncc(-c3cccc(C(F)(F)F)c3)n2c1", "Potency": "inconclusive: 11.2 µM [inhibitor, partial curve, poor fit]"}
{"smiles": "O=C(c1cnc2ccc3ccccc3c2c1)c1cc(F)ccc1O", "Potency": "inconclusive: 2.24 µM [inhibitor, full curve, poor fit]"}
{"smiles": "Nc1cccc2c1C(=O)N(C(=O)/C=C/c1cccc(F)c1)C2=O", "Potency": "inconclusive: 35.5 µM [inhibitor, single point]"}
{"smiles": "CC(=C/C(=O)O)/C=C/c1ccc(Cl)o1", "Potency": "inactive"}
{"smiles": "CC1CCC2C(=O)N(c3ccc(C(=O)Oc4cccc5cccnc45)cc3)C(=O)C2C1", "note": "(configuration not stated)", "Potency": "inconclusive: 20 µM [inhibitor, single point]"}
{"smiles": "CCOc1ccc(C2CC(=O)Nc3nc(SCc4ccccc4C)[nH]c(=O)c32)cc1OC", "note": "(configuration not stated)", "Potency": "inconclusive: 35.5 µM [inhibitor, single point]"}
{"smiles": "Cc1cc(=O)oc2c(C)c(OC3CCCCC3=O)ccc12", "note": "(configuration not stated)", "Potency": "inactive"}
{"smiles": "N=C(N)SCc1cn(-c2ccccc2)nc1-c1ccc(Br)cc1", "Potency": "inactive"}
{"smiles": "CCOC(=O)C1(CC2CCCCO2)CCN(C(=O)Nc2ccc(SC)cc2)CC1", "note": "(configuration not stated)", "Potency": "inactive"}
{"smiles": "Cc1ccccc1OCCc1c(C)[nH]c(=S)[nH]c1=O", "Potency": "inconclusive: 6.31 µM [inhibitor, full curve, poor fit]"}
{"smiles": "Cn1cc(CN(C(=O)Nc2ccccc2)C2CCCCC2)c2ccccc21", "Potency": "inactive"}
{"smiles": "CCC(C)Nc1nc(N)c([N+](=O)[O-])c(NCc2ccccc2)n1", "note": "(configuration not stated)", "Potency": "inconclusive: 15.8 µM [inhibitor, single point]"}
{"smiles": "Cc1cc(C)c2nc(C)cc(N/N=C/c3ccc(O)cc3)c2c1", "Potency": "inconclusive: 25.1 µM [inhibitor, single point]"}
{"smiles": "CCc1ccc(/C=C/c2c[nH]c3ccccc23)[n+](CC)c1", "Potency": "inconclusive: 35.5 µM [inhibitor, single point]"}
{"smiles": "CC1=NOC(=O)/C1=C\\c1ccc(-c2ccc(Br)cc2C(=O)O)o1", "Potency": "inactive"}
{"smiles": "CCCCC(=NCCc1c(C)[nH]c2ccc(OC)cc12)C1=C(O)CC(c2ccccc2)CC1=O", "note": "(configuration not stated)", "Potency": "inconclusive: 1.12 µM [inhibitor, full curve, poor fit]"}
{"smiles": "CN(c1ccccc1)S(=O)(=O)c1ccc(C(=O)OCC(=O)NCc2cccs2)cc1", "Potency": "inconclusive: 35.5 µM [inhibitor, single point]"}
{"smiles": "CCC1CN(C(=O)N2CCC(C(=O)NCCC3=CCCCC3)CC2)c2cc(C)ccc2O1", "note": "(configuration not stated)", "Potency": "inactive"}
{"smiles": "O=C1C=C(Nc2cccnc2)c2ccccc2C1=O", "Potency": "inconclusive: 1.58 µM [inhibitor, partial curve, poor fit]"}
{"smiles": "COc1cccc(/C=C/C(=O)c2ccc(NC3=NCCCS3)cc2)c1", "Potency": "inconclusive: 11.2 µM [inhibitor, partial curve, poor fit]"}
{"smiles": "Cn1cccc1/C=C1\\SC(=Nc2ccccc2)NC1=O", "Potency": "inconclusive: 3.16 µM [inhibitor, full curve]"}
{"smiles": "O=C(COc1ccccc1)NC(=S)Nc1cccc2c(O)cccc12", "Potency": "inconclusive: 7.08 µM [inhibitor, partial curve, poor fit]"}
{"smiles": "Cc1cc(C(=O)NCCc2ccc(Cl)cc2)c2c(C)nn(-c3cccc(F)c3)c2n1", "Potency": "inactive"}
{"smiles": "N#C/C(=C(/O)c1ccc([N+](=O)[O-])o1)c1nc2ccccc2[nH]1", "Potency": "inconclusive: 3.98 µM [inhibitor, single point]"}
{"smiles": "Brc1cc2ccccc2[n+](Cc2ccccc2)c1", "Potency": "inconclusive: 12.6 µM [inhibitor, single point]"}
{"smiles": "COc1ccc(/C=C2/CCCc3ccccc3C2=O)cc1", "Potency": "inconclusive: 2 µM [inhibitor, partial curve, poor fit]"}
